# Measured values from PubChem BioAssay AID1508642 (National Center for Advancing Translational Sciences (NCATS), 2021).
# The campaign covered roughly 43,000 compounds. About 200 (0.47%) were called active. About 12% were inconclusive and are not listed. Calls follow the shape of the dose curve; as a rule, active = well fitted cell-killing curve with a large enough effect; inconclusive = small, poorly fitted or top-dose-only effect, or effect the other way; inactive = flat fitted curve, though single readings scatter. This is one part of the list.
# Assay: Cell viability qHTS assay in S16 Pmp22-F2sN cells; also: nearly all actives have a fitted effect of over 65% in size
# Conditions: S16 Pmp22-F2sN Schwann cells viability, CellTiter-Glo, 24 h; series mostly up to 57.5 µM; activity change, negative = cytotoxicity: at the top concentration
# In short: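 S16 Pmp22-F2sN Schwann cells (500-1,000/well) in phenol-red-free DMEM with 10% FBS received 23 nL compound by pin tool for 24 h at 37 °C. Viability was then read as CellTiter-Glo luminescence after 15 min at room temperature.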
# % is scaled to controls: 0 for no effect and ±100 for the full control effect.
row,Structure (SMILES),"activity change, negative = cytotoxicity"
1,Cc1cccc(N2CCN(C(=O)c3ccc(Nc4nc5ccccc5n5nnnc45)cc3)CC2)c1C,inactive: -27%
2,CC1=C(C(=O)Nc2cc(Cl)ccc2C)C(c2cccs2)n2ncnc2N1 (stereo not given),inactive: 11.3%
3,O=C(CSCc1ccc(F)cc1)N1CCc2c([nH]c3ccccc23)C1c1ccc(Cl)cc1 (stereo not given),inactive: -8.31%
4,COc1cc(C(=O)Nc2ccccc2-c2nc(-c3ccc(C)cc3)no2)cc(OC)c1OC,inactive: 16.2%
5,CC(=O)c1c(C)oc2c1cc(NS(=O)(=O)c1ccc(Cl)c(C)c1)c1ccccc12,inactive: -16.1%
6,COc1ccc(OC)c(NC(=O)Cn2c(=O)cc(-c3ccccc3)c3c(C)nn(C)c32)c1,inactive: 1.84%
7,COc1cc(NC(=O)CCCOc2cc(=O)n(C)c3ccccc23)cc(OC)c1OC,inactive: -14.6%
8,CCOC(=O)CNC(=O)N1CCN(c2nnc(C)c3c(C)n(-c4ccc(Cl)cc4)nc23)CC1,inactive: 0.471%
9,Cc1cccc(N2CCN(C(=O)CS(=O)(=O)Cc3nc(-c4ccccc4C)oc3C)CC2C)c1 (stereo not given),inactive: -1.2%
10,CCc1ccc(S(=O)(=O)c2nnn3c2nc(Nc2ccc(NC(C)=O)cc2)c2sccc23)cc1,inactive: 11.3%
11,Cc1nc(-c2ccc(C)c(N3CCN(C(=O)Nc4cccc(Cl)c4C)CC3)c2)no1,inactive: -0.805%
12,CCOC(=O)C1CCCN(Cc2cn3c(-c4cccc(Br)c4)nnc3s2)C1 (stereo not given),inactive: 1.66%
13,Cc1ccc(-n2c(Cc3ccccc3)nnc2SCc2nc(-c3cccs3)no2)cc1C,inactive: -24.1%
14,O=C(Nc1ccc(Cl)cc1)C(NS(=O)(=O)c1cccs1)c1ccccc1 (stereo not given),inactive: -2.26%
15,Cc1cccc(OCC(=O)Nc2nnc(S(=O)(=O)N3CCc4ccccc43)s2)c1,inactive: 1.81%
16,Cc1cc(NC(=O)CCNS(=O)(=O)c2cccc3nsnc23)ccc1Br,inactive: -2.45%
17,Cc1ccc(NC(=O)c2ccccc2Br)c(C(=O)c2ccccc2)c1,inactive: -12.9%
18,COc1ccc(CNC(=O)c2ccc3nc(-c4ccc(F)cc4)c(-c4ccc(F)cc4)nc3c2)cc1,inactive: 9.7%
19,Cc1nnc(NC(=O)c2ccccc2)s1,inactive: -12.3%
20,CCC1(C)Cc2c(sc3nc(SC)n(-c4ccc(C)cc4)c(=O)c23)CO1 (stereo not given),inactive: -0.25%
21,O=C(Nc1ccc(-c2nc3cc(Cl)ccc3o2)cc1)c1cc2ccccc2o1,inactive: 7%
22,COc1ccc(Cn2c(SCc3ccc(C(=O)NC(C)c4ccccc4)cc3)nc3cccnc32)cc1 (stereo not given),inactive: 3.73%
23,O=C(NCc1ccccc1Cl)c1ccc2oc(=O)n(Cc3ccccc3)c2c1,inactive: -1.85%
24,Cc1cc(C)n(-c2nc3ccccc3nc2N2CCN(c3cccc(C(F)(F)F)c3)CC2)n1,inactive: -2.84%

row,Structure (SMILES),"activity change, negative = cytotoxicity"
1,CCOc1cccc2sc(N(Cc3cccnc3)C(=O)c3ccc(C#N)cc3)nc12,inactive: -7.36%
2,COc1ccc(NC(=O)CC2NCCNC2=O)c(OC)c1 (stereo not given),inactive: 3.02%
3,Cc1c(CC(=O)NCc2ccc(F)cc2)c(=O)oc2cc(O)c(Cl)cc12,inactive: 0.155%
4,CCOC(=O)c1c(NC(=O)C2c3ccccc3Oc3ccccc32)sc(C)c1C,inactive: 0.391%
5,Cc1ccc(-n2c(SCc3ccccc3)nc3c([nH]c4ccccc43)c2=O)cc1,inactive: 1.4%
6,COc1ccccc1C(=O)Oc1ccc(C(c2c(C)[nH][nH]c2=O)c2c(C)[nH][nH]c2=O)cc1,inactive: 1.05%
7,COC(=O)c1cc(-c2ccc(C)cc2)c2c(=O)n(C)c(=O)n(C)c2n1,inactive: -1.61%
8,Cc1nc(-c2ccc(F)cc2)sc1CCNC(=O)C(=O)Nc1ccc2c(c1)OCCO2,inactive: 8.58%
9,O=C(CCCn1c(=O)c2cccn2c2ccccc21)NCCc1ccc(Cl)cc1,inactive: -21.2%
10,CSc1nn(Cc2ccc(C)cc2)c(N)c1S(=O)(=O)c1ccccc1,inactive: -7.64%
11,COc1cccc(CNC(=O)c2cc(S(=O)(=O)N3CCCCC3)c[nH]2)c1,inactive: 5.58%
12,COc1ccc(CC(=O)Nc2ccc(-c3nc4ccccc4s3)c(C)c2)cc1OC,inactive: -16.2%
13,COc1ccc2oc(=O)c(C(=O)N3CCN(c4ccc(C)cc4)CC3)cc2c1,inactive: 8.05%
14,Cc1csc2nc(COC(=O)c3ccccc3NC(=O)c3ccc(C(C)(C)C)cc3)cc(=O)n12,inactive: 3.04%
15,CC1=C(C(=O)Nc2ccccc2)C(c2ccccc2)n2nc(-c3ccco3)nc2N1 (stereo not given),inactive: 3.09%
16,COc1ccc(NC(=O)Cn2c(SCc3cccc(Cl)c3)nc3ccncc32)c(OC)c1OC,inactive: 4.27%
17,COc1cc(Cl)c(C)cc1NC(=O)CCc1nc2cccnc2n1-c1ccccc1,inactive: 8.13%
18,CCOc1ccccc1NC(=O)CCn1c(-c2ccc(OC)cc2)cc(C(C)=O)c1C,inactive: -3.58%
19,CCOc1ccccc1NC(=O)C(C)Sc1cc(-c2ccccc2)nc(C)n1 (stereo not given),inactive: 3.99%
20,Cn1c(=O)cc(SCC(=O)NCc2ccc(F)cc2)c2ccc(Cl)cc21,inactive: -0.421%
21,CCCCNC(=O)C1CCN(S(=O)(=O)c2cc(Br)cc3c2N(C(=O)CC)CC3)CC1,inactive: -0.763%
22,COc1ccc(-c2nnc(SCC(=O)Nc3cccc(F)c3)s2)cc1,inactive: 5.82%
23,COc1ccc(CNC(=O)Cn2c(SCC(=O)N(C)c3ccccc3)nc3ccccc32)cc1,inactive: 22.2%
24,CCOC(=O)c1noc2nc(C)n(CC(=O)Nc3cc(Cl)ccc3OC)c(=O)c12,inactive: 1.15%

row,Structure (SMILES),"activity change, negative = cytotoxicity"
1,CCCCn1c(=O)n(-c2ccc(Br)cc2F)c(=O)c2c3c(sc21)CN(C(C)=O)CC3,inactive: 1.68%
2,Cc1ccc(OCC(=O)Nc2c(C(=O)c3ccccc3)oc3ccccc23)cc1C,inactive: 3.64%
3,COc1ccccc1CNC(=O)C(=O)NCC(c1cccs1)S(=O)(=O)c1ccc(F)cc1 (stereo not given),inactive: -4.96%
4,Cc1ccc(CNC(=O)C2CCN(S(=O)(=O)N3CCC(C)CC3)CC2)cc1,inactive: 1.68%
5,Oc1c(C(c2ccccc2)N2CCN(Cc3ccccc3)CC2)sc2nc(-c3ccco3)nn12 (stereo not given),inactive: -2.71%
6,Cc1csc2nc(COC(=O)c3ccc(NC(=O)COc4ccccc4F)cc3)cc(=O)n12,inactive: -8.52%
7,CS(=O)(=O)c1ccc2nc(NC(=O)CS(=O)(=O)c3ccc(Cl)cc3)sc2c1,inactive: -1.13%
8,CCOC(=O)CNC(=O)Nc1cc(C(=O)NCc2cccc(F)c2)ccc1N1CCCC1,inactive: 12.5%
9,Cc1ccc(-c2nc3scc(CCNC(=O)c4cccc(Br)c4)n3n2)cc1,inactive: -7.33%
10,COc1ccccc1NC(=O)C1CCCN(c2nnc(C)c3c(C)n(-c4ccccc4)nc23)C1 (stereo not given),inactive: -2.52%
11,CCCCC12CN3CC(C)(CN(C1)C3c1cc(Br)ccc1O)C2=O (stereo not given),inactive: 0.0645%
12,COc1ccc(NC(=O)c2ccc3nc(CCc4ccccc4)oc3c2)cc1,inactive: 9.18%
13,CCCN(CCC)C(=O)Cn1c(=O)n(-c2cccc(C(F)(F)F)c2)c(=O)c2c(C)c(C)sc21,inactive: -5.09%
14,O=C(Cn1c(=O)n(Cc2ccco2)c(=O)c2cccnc21)Nc1ccccc1F,inactive: -18.7%
15,CCOc1cc(C(=O)Nc2ccc(-c3nc4cc(C)ccc4o3)cc2)cc(OCC)c1OCC,inactive: 5.86%
16,O=C(Nc1ccc2nc(SCC(=O)N3CCCC3)sc2c1)c1ccccc1,inactive: 7.59%
17,Cc1ccc(NC2=C(c3ccc(C(F)(F)F)cc3)C(=O)c3ccccc32)cc1F,inactive: -1.72%
18,CCOc1ccccc1NC(=O)CSc1nc2ccccc2c2nc(CCn3cncc3C)nn12,inactive: 6.24%
19,O=C(NCC(c1cccnc1)N1CCc2ccccc21)c1ccccc1Br (stereo not given),inactive: -13.6%
20,Cc1ccc2oc(=O)c3cnn(CC(=O)NCc4ccccc4Cl)c3c2c1,inactive: 3.73%
21,O=C1[C@@H]2CSC(c3ccc(F)cc3)N2C(=O)N1c1ccc(Cl)cc1 (stereo not given in full),inactive: -0.768%
22,COc1ccc(CNC(=O)c2cccc(N3CCCS3(=O)=O)c2)cc1,inactive: 21.8%
23,CCc1ccc(-n2c(=O)c3c4c(sc3n(Cc3ccc(F)cc3)c2=O)CCCC4)cc1,inactive: 4.12%
24,O=C(Cn1c(=O)n2nc(-c3ccccc3)nc2c2ccccc21)Nc1ccccc1C(F)(F)F,inactive: 17.1%

row,Structure (SMILES),"activity change, negative = cytotoxicity"
1,Nc1ncc(S(=O)(=O)NCc2cccc(Cl)c2)cn1,inactive: -1.05%
2,Cc1ccc(-c2nc(CCNC(=O)C(=O)Nc3ccc(C)c(C)c3)cs2)cc1,inactive: 6.44%
3,Cc1ccc(C)n1-c1nnc(N2CCC(C(=O)NCc3ccccc3Cl)CC2)s1,inactive: -14.9%
4,CSc1ccc(CNCc2c(C(=O)O)c(C)n(Cc3ccc(F)cc3Cl)c2C)cc1,inactive: 1.31%
5,COC(=O)c1c(NC(=O)c2ccc(S(=O)(=O)N3CCCC(C)C3)cc2)sc2c1CCN(C(C)C)C2 (stereo not given),inactive: -3.92%
6,Cc1ccc(Cl)c2sc(N3CCN(C(=O)C4CC4)CC3)nc12,inactive: -2.56%
7,CC(C)c1ccc(NC(=O)CSc2ncc3c(n2)-c2ccccc2N(C)S3(=O)=O)cc1,inactive: 1.71%
8,Cc1c(NC(=O)c2nc3ccccc3n(C)c2=O)cccc1[N+](=O)[O-],inactive: -0.709%
9,COc1cccc(N2CCN(C(=O)C3CCCN(S(=O)(=O)c4ccc(Br)s4)C3)CC2)c1 (stereo not given),inactive: -28.3%
10,Cc1ccccc1CNC(=O)c1c(C)oc2c1C1=NCCN1C=N2,inactive: 1.48%
11,Cc1ccccc1Cn1cc(S(=O)(=O)c2ccc(Cl)cc2)c(=O)c2cc3c(cc21)OCO3,inactive: 5.66%
12,COc1ccc(NS(=O)(=O)c2cc3[nH]c(=O)c(=O)[nH]c3cc2C)cc1OC,inactive: -1.86%
13,Cc1ccc2c(=O)cc(C(=O)Nc3sc4c(c3C(=O)NCc3ccco3)CCC4)oc2c1C,inactive: 3.79%
14,Cc1ccc(NC(=O)c2ccc(NC(=O)N3CCSc4ncccc43)cc2)cc1Cl,inactive: -25.6%
15,CCc1ccc(-n2nc3cc(C)c(NC(=O)c4cc(Cl)ccc4OC)cc3n2)cc1,inactive: -3.45%
16,O=C(Cn1cc(S(=O)(=O)Cc2ccc(F)cc2)c2ccccc21)NCCc1ccccc1,inactive: -10.1%
17,CCCN(C(=O)Cn1ncc2c(=O)oc3ccccc3c21)c1cccc(C)c1,inactive: -17.2%
18,Cc1ccc(CNC(=O)Cn2ncc3c(C)n(Cc4ccc(Cl)cc4)c(C)c3c2=O)cc1,inactive: -12.6%
19,COc1ccccc1Nc1cc(C)nc2nc(-c3ccccc3)nn12,inactive: -3.16%
20,CCC(C)NC(=O)Cn1c(=O)n(Cc2ccc(C(=O)NCCCOC)cc2)c(=O)c2ccccc21 (stereo not given),inactive: 4.37%
21,Cc1ccc(NC(=O)c2c(N3CCCC3=O)c3cc(C)ccc3n2C)c(C)c1,inactive: 12.4%
22,COc1ccc(OCCn2c(C3CC(=O)N(c4ccc(F)cc4)C3)nc3ccccc32)cc1 (stereo not given),inactive: -18%
23,COc1ccc(Nc2cc(C(=O)NCCc3ccccc3)c3ccccc3n2)cc1OC,inactive: 4.98%
